Assay results from PMC4336329 (PLoS ONE, 2015).
Hit rate of the full screen: of about 310,000 compounds, about 2,200 (0.71%) showed an effect of 50% or more. The effect is printed as a negative number. Some of the results follow.

Each molecule was assayed against human ether-à-go-go-related gene (hERG) potassium channel (human, UniProt Q12809) (assay: primary screen, population patch clamp on CHO cells stably expressing hERG).
Chain of human ether-à-go-go-related gene (hERG) potassium channel (Q12809 whole entry, looked up): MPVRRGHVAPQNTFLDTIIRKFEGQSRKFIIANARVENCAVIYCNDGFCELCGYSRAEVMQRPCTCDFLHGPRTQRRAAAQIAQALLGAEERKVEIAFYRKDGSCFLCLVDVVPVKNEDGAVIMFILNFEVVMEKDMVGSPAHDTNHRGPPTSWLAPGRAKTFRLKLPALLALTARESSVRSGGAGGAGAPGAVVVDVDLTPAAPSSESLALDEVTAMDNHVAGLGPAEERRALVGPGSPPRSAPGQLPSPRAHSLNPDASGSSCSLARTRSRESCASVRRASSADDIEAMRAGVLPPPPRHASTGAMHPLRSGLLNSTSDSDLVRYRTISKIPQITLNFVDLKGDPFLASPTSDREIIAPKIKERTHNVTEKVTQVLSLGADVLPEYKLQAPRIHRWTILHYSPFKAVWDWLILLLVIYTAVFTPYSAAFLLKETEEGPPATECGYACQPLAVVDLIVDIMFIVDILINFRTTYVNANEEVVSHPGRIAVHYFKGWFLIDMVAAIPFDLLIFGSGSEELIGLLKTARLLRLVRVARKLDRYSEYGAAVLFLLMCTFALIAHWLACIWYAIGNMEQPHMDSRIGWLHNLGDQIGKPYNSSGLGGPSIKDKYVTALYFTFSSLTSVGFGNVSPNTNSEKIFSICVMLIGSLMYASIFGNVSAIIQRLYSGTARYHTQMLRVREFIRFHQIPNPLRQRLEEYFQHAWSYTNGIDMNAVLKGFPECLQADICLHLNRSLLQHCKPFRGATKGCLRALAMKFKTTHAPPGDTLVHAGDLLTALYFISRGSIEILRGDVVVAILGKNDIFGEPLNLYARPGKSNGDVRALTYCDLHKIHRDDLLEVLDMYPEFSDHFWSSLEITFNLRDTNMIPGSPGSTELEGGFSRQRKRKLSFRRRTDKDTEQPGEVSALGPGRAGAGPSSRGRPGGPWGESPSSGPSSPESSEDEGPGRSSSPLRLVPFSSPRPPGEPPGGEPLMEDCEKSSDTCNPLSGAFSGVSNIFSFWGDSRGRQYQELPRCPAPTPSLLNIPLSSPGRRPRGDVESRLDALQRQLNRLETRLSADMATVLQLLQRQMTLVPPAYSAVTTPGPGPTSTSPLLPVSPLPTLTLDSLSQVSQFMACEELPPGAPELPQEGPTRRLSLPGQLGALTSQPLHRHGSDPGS

**Q.** For CN(C(=O)CC1C(=O)NCCN1C/C=C/c1ccccc1)C1CCOCC1 (stereo not shown), which “hERG current change (%, negative = inhibition) at 1uM” value is on record?
**A.** 14.2%

**Q.** For COc1ccc(CNC(=O)c2c(O)c3cc(OC)c(OC)cc3[nH]c2=O)cc1OC, which “hERG current change (%, negative = inhibition) at 1uM” value is on record?
**A.** 11.7%

**Q.** O=c1c2ccccc2nc(SCc2cn3ccsc3n2)n1-c1ccccc1F was tested. Which “hERG current change (%, negative = inhibition) at 1uM” value did it give?
**A.** 8.53%

**Q.** Which “hERG current change (%, negative = inhibition) at 1uM” value does the source give for CC(c1ccccc1)n1c(N2CCN(C)CC2)nc2c1c(=O)[nH]c(=O)n2C (stereo not shown) here?
**A.** 1.3%

**Q.** For COc1ccc(CC(CN)c2ccccc2)cc1 (stereo not shown), which “hERG current change (%, negative = inhibition) at 1uM” value is on record?
**A.** 9.26%

**Q.** With COc1ccc(C(=O)COC(=O)c2cccnc2SC)cc1 as the molecule, how does the “hERG current change (%, negative = inhibition) at 1uM” value read?
**A.** 4.19%

**Q.** With CC(=O)NS(=O)(=O)c1ccc(N)cc1 as the molecule, how does the “hERG current change (%, negative = inhibition) at 1uM” value read?
**A.** 5.19%

**Q.** With c1ccc2c(c1)CCc1snnc1-2 as the molecule, how does the “hERG current change (%, negative = inhibition) at 1uM” value read?
**A.** 12.1%

**Q.** Which “hERG current change (%, negative = inhibition) at 1uM” value does the source give for O=S(=O)(c1ccc(-c2csc(=Nc3ccccc3)n2CCCN2CCOCC2)cc1)N1CCOCC1 here?
**A.** -1.19%

**Q.** How did the “hERG current change (%, negative = inhibition) at 1uM” value turn out when CCSc1cc(N2CC(C)OC(C)C2)nc(-c2ccccc2Cl)n1 (stereo not shown) was run?
**A.** 17.6%

**Q.** With COc1cc(NC(=S)NCCC(c2ccccc2)c2ccccc2)cc(OC)c1 as the molecule, how does the “hERG current change (%, negative = inhibition) at 1uM” value read?
**A.** 3.65%

**Q.** For N#CCc1c(C#N)c(N)nc(N2CCCC(O)C2)c1C#N (stereo not shown), which “hERG current change (%, negative = inhibition) at 1uM” value is on record?
**A.** 11.3%

**Q.** COc1ccc(CCNC(=O)CCNS(=O)(=O)c2ccc3c(c2)CCN3C(C)=O)cc1OC was tested. Which “hERG current change (%, negative = inhibition) at 1uM” value did it give?
**A.** -1.63%

**Q.** How did the “hERG current change (%, negative = inhibition) at 1uM” value turn out when COC/C=C/C1=CC2=CC(=O)C(C)(OC(=O)c3cnc4ccccc4n3)C(=O)C2=CN1CC(C)C (stereo not shown) was run?
**A.** 14.7%

**Q.** For O=C(CN(C(=O)c1csnn1)c1cccc2c1CCCC2)NCc1ccccc1, which “hERG current change (%, negative = inhibition) at 1uM” value is on record?
**A.** 12.3%

**Q.** N#C/C(=C\c1c[nH]c2ccccc12)c1nnc2n1CCCCC2 was tested. Which “hERG current change (%, negative = inhibition) at 1uM” value did it give?
**A.** -5.7%

**Q.** Which “hERG current change (%, negative = inhibition) at 1uM” value does the source give for COc1ccccc1CNC(=O)CNC(=O)[C@@H]1Cc2ccccc2CN1 here?
**A.** 3.47%

**Q.** c1cncc(CNc2ncnc3ccc(-c4ccoc4)cc23)c1 was tested. Which “hERG current change (%, negative = inhibition) at 1uM” value did it give?
**A.** -6.62%

**Q.** For COC(=O)C1C2C=CC3(CN(c4ccc(Cl)c(F)c4)C(=O)C13)O2 (stereo not shown), which “hERG current change (%, negative = inhibition) at 1uM” value is on record?
**A.** 7.22%

**Q.** CC1CC(C)CN(C(=O)CSc2nnc(-c3ccc(F)cc3)o2)C1 (stereo not shown) was tested. Which “hERG current change (%, negative = inhibition) at 1uM” value did it give?
**A.** 0.0034%

**Q.** Which “hERG current change (%, negative = inhibition) at 1uM” value does the source give for O=C(OCCN1CCN(c2ncc(C(F)(F)F)cc2Cl)CC1)c1ccc(F)cc1 here?
**A.** 7.23%

**Q.** With CCN1CCN(c2cc(C)c3cc(NC(=O)c4cccc(OC)c4)ccc3n2)CC1 as the molecule, how does the “hERG current change (%, negative = inhibition) at 1uM” value read?
**A.** 6.09%

**Q.** Which “hERG current change (%, negative = inhibition) at 1uM” value does the source give for O=C(c1cccc(C(F)(F)F)c1)C1CCCN(C(=O)C2CCOCC2)C1 (stereo not shown) here?
**A.** -16.6%

**Q.** How did the “hERG current change (%, negative = inhibition) at 1uM” value turn out when COC(=O)C1CN(C(=O)C(C)Oc2ccccc2F)c2ccccc2O1 (stereo not shown) was run?
**A.** 16.6%

**Q.** For O=C(CN1C(=O)NC2(CCCC2)C1=O)Nc1cccc(-c2nnc3n2CCCCC3)c1, which “hERG current change (%, negative = inhibition) at 1uM” value is on record?
**A.** 6.07%

**Q.** CC1CCCC(NC(=O)C2c3ccccc3C(=O)N2Cc2cccs2)C1C (stereo not shown) was tested. Which “hERG current change (%, negative = inhibition) at 1uM” value did it give?
**A.** -2.85%

**Q.** C=CCN1C(=O)C2C(C(=O)NCc3ccccc3)C3C=CC2(O3)C1C(=O)NC(C)(C)C (stereo not shown) was tested. Which “hERG current change (%, negative = inhibition) at 1uM” value did it give?
**A.** 4.61%

**Q.** How did the “hERG current change (%, negative = inhibition) at 1uM” value turn out when CCn1cnc2sc(C(=O)N3CCN(c4ccc(OC)cc4)CC3)c(C)c2c1=O was run?
**A.** -1.71%

**Q.** Which “hERG current change (%, negative = inhibition) at 1uM” value does the source give for COc1ccc(Nc2nc3ccccc3n3nnnc23)cc1 here?
**A.** -8.69%

**Q.** With CCOC(=O)N1CCN(C(=O)CCN2C(=O)c3ccccc3S2(=O)=O)CC1 as the molecule, how does the “hERG current change (%, negative = inhibition) at 1uM” value read?
**A.** 12.5%

**Q.** Which “hERG current change (%, negative = inhibition) at 1uM” value does the source give for COc1ccc(S(=O)(=O)NC2CCCC2)c(OC)c1 here?
**A.** 2.09%

**Q.** COc1ccc(C2(C)NC(=O)N(CC(=O)Nc3ccc(-c4nc5ccc(C)cc5s4)cc3)C2=O)cc1 (stereo not shown) was tested. Which “hERG current change (%, negative = inhibition) at 1uM” value did it give?
**A.** 15.3%

**Q.** How did the “hERG current change (%, negative = inhibition) at 1uM” value turn out when CC(=O)C1=C(O)C(=O)N(c2ccc(O)cc2)C1c1cccc(F)c1 (stereo not shown) was run?
**A.** 18.1%

**Q.** With COc1ccc(/C=C2\SC(=O)N(CC(=O)NCCC(C)C)C2=O)cc1OC as the molecule, how does the “hERG current change (%, negative = inhibition) at 1uM” value read?
**A.** 1.8%

**Q.** Which “hERG current change (%, negative = inhibition) at 1uM” value does the source give for Cc1ccc(NC(=O)CN2C(=O)NC3(CCc4ccccc43)C2=O)cc1 (stereo not shown) here?
**A.** 13.6%

**Q.** With COCCNC(=O)c1ccc(CS(=O)(=O)c2ccc(Cl)cc2)o1 as the molecule, how does the “hERG current change (%, negative = inhibition) at 1uM” value read?
**A.** 12.8%

**Q.** With CCOC(=O)c1c(NC(=O)c2ccc(C)cc2)sc2c1CC(C)(C)OC2 as the molecule, how does the “hERG current change (%, negative = inhibition) at 1uM” value read?
**A.** 8.11%

**Q.** How did the “hERG current change (%, negative = inhibition) at 1uM” value turn out when Cc1nc(-c2ccc([N+](=O)[O-])cc2)c(-c2ccccc2)o1 was run?
**A.** 12.8%

**Q.** How did the “hERG current change (%, negative = inhibition) at 1uM” value turn out when COc1ccc(CNC(c2ccccc2)c2ccc(Cl)cc2)cc1 (stereo not shown) was run?
**A.** 9.64%

**Q.** Cc1nc2cc(C(F)(F)F)ccc2n1C was tested. Which “hERG current change (%, negative = inhibition) at 1uM” value did it give?
**A.** 2.26%

**Q.** Which “hERG current change (%, negative = inhibition) at 1uM” value does the source give for COc1ccc(/C=N/OC(=O)Nc2ccccc2OC)cc1 here?
**A.** 9.82%

**Q.** CC(=O)N1CCN=C1SCc1cccc(Cl)c1 was tested. Which “hERG current change (%, negative = inhibition) at 1uM” value did it give?
**A.** 10.7%

**Q.** How did the “hERG current change (%, negative = inhibition) at 1uM” value turn out when O=C(NNC(=S)NCc1ccccc1)c1ccccc1OC(F)F was run?
**A.** 9.1%

**Q.** How did the “hERG current change (%, negative = inhibition) at 1uM” value turn out when CCc1nnc(NC(=O)CSc2nnc(-c3c[nH]c4ccccc34)n2CCOC)s1 was run?
**A.** -9.97%

**Q.** With COc1ccc(CCNC(=O)COC(=O)Cc2ccccc2)cc1 as the molecule, how does the “hERG current change (%, negative = inhibition) at 1uM” value read?
**A.** 3.37%

**Q.** With Oc1[nH]c2ccc(Br)cc2c1N=NC(=S)N1CCOCC1 as the molecule, how does the “hERG current change (%, negative = inhibition) at 1uM” value read?
**A.** 17.6%

**Q.** For O=C(COC(=O)c1cccnc1Cl)NCC1CCCO1 (stereo not shown), which “hERG current change (%, negative = inhibition) at 1uM” value is on record?
**A.** -0.515%

**Q.** Which “hERG current change (%, negative = inhibition) at 1uM” value does the source give for Cn1nc(C(=O)NCc2cccnc2)c2ccccc2c1=O here?
**A.** 4.43%

**Q.** With CSC(=S)N/N=C(\C)c1ccc(Br)cc1 as the molecule, how does the “hERG current change (%, negative = inhibition) at 1uM” value read?
**A.** 25.6%

**Q.** How did the “hERG current change (%, negative = inhibition) at 1uM” value turn out when CCOc1cc(C(=O)Nc2cc(=O)n(C)c(=O)n2C)cc(OCC)c1OCC was run?
**A.** 7.23%

**Q.** How did the “hERG current change (%, negative = inhibition) at 1uM” value turn out when CC(=O)N1CCOc2ccc(S(=O)(=O)NCCc3ccccc3)cc21 was run?
**A.** 13.2%

**Q.** How did the “hERG current change (%, negative = inhibition) at 1uM” value turn out when O=C(COC(=O)CN1C(=O)c2ccccc2C1=O)Nc1ccccc1[N+](=O)[O-] was run?
**A.** 12%

**Q.** For C=C(C(=O)c1ccccc1)C(C)CC(=O)c1ccccc1 (stereo not shown), which “hERG current change (%, negative = inhibition) at 1uM” value is on record?
**A.** 16%

**Q.** Cc1cc(C)n(-c2nc3nonc3nc2Nc2cccc(C)c2C)n1 was tested. Which “hERG current change (%, negative = inhibition) at 1uM” value did it give?
**A.** 2.83%

**Q.** How did the “hERG current change (%, negative = inhibition) at 1uM” value turn out when Cc1cc(Cl)ccc1OCCCC(=O)N1CCN(C(=O)c2ccco2)CC1 was run?
**A.** -59.1%

**Q.** Which “hERG current change (%, negative = inhibition) at 1uM” value does the source give for COc1cccc(NC(=O)Cn2c(=O)n(-c3ccccc3)c(=O)c3sccc32)c1 here?
**A.** 13.5%

**Q.** How did the “hERG current change (%, negative = inhibition) at 1uM” value turn out when NC(=O)COC(=O)/C=C/c1cccc(Br)c1 was run?
**A.** 13%

**Q.** Cc1ccc(O)c(CCc2ccccc2)n1.Cl was tested. Which “hERG current change (%, negative = inhibition) at 1uM” value did it give?
**A.** 16.2%
